pIC50: −log10 of the molar value. By IC50 is meant the dose at which the fit gives 50% viability; where the fit passes the top or lowest dose, that dose stands as a limit. For AUC the same curve is integrated over the 256-fold range of doses and scaled to a fraction; values near 1 show little effect. For part of these data: A top dose marked as inferred was derived from the fitted curves, not read from the paper. For part of these data: An entry number marks a drug with two screens in the source, which often give different values.
How the values were obtained:
Test in all cases: Viability of human cancer cell lines after 72 h of drug (GDSC screen)
AR-42 = compound: CC(C)[C@H](C(=O)Nc1ccc(C(=O)NO)cc1)c1ccccc1 [AR-42]; conditions: top dose 5.12 µM; top dose inferred
Protocol: (§1)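 Human cancer cell lines in 384-well plates, medium with 10% serum, drug for 72 h over a 256-fold dose range (nine 2-fold or five 4-fold steps up to the top dose). Adherent lines were fixed and stained with the nucleic acid dye Syto60, suspension lines read with resazurin; signal relative to control wells, capped at 0 and 100%. One two-parameter sigmoid per drug and line, fitted in a mixed model over all curves with the slope shared within a line.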

Pazopanib = compound: Cc1ccc(Nc2nccc(N(C)c3ccc4c(C)n(C)nc4c3)n2)cc1S(N)(=O)=O [Pazopanib]; conditions: top dose 8 µM
Protocol: as §1

GDC0941 = compound: CS(=O)(=O)N1CCN(Cc2cc3nc(-c4cccc5[nH]ncc45)nc(N4CCOCC4)c3s2)CC1 [GDC0941]; conditions: top dose 4 µM; screen: GDSC drug entry 1527; top dose inferred
Protocol: as §1

CEP-701 = compound: C[C@]12O[C@H](C[C@]1(O)CO)n1c3ccccc3c3c4c(c5c6ccccc6n2c5c31)CNC4=O [CEP-701]; conditions: top dose 2 µM; top dose inferred
Protocol: as §1

Cell Line | AUC (AR-42) | pIC50 (AR-42) | AUC (Pazopanib) | pIC50 (Pazopanib) | AUC (GDC0941) | pIC50 (GDC0941) | AUC (CEP-701) | pIC50 (CEP-701)
OAW-28 (ovary, adherent) | 0.445 | 6.66 | 0.913 | < 5.10 | 0.722 | 5.89 |  | 
OCUM-1 (stomach, adherent) | 0.981 | < 5.29 |  |  |  |  | 0.555 | 6.74
OSC-19 (head and neck, adherent) | 0.533 | 6.40 | 0.984 | < 5.10 | 0.841 | 5.53 |  | 
OVCA420 (ovary, adherent) | 0.395 | 6.82 |  |  | 0.555 | 6.43 | 0.833 | 5.71
OVCAR-3 (ovary, adherent) | 0.987 | < 5.29 | 0.911 | < 5.10 | 0.642 | 6.19 |  | 
OVK-18 (ovary, adherent) | 0.983 | < 5.29 |  |  | 0.717 | 5.95 | 0.773 | 6.06
PANC-10-05 (pancreas, adherent) | 0.576 | 6.26 | 0.898 | < 5.10 | 0.756 | 5.76 |  | 
PCI-38 (head and neck, adherent) | 0.645 | 6.09 | 0.985 | < 5.10 | 0.878 | < 5.40 |  | 
PEO1 (ovary, adherent) | 0.538 | 6.39 |  |  | 0.747 | 5.88 | 0.678 | 6.40
PL18 (pancreas, adherent) | 0.723 | 5.86 | 0.972 | < 5.10 | 0.987 | < 5.40 |  | 
PWR-1E (prostate, adherent) |  |  |  |  | 0.921 | < 5.40 | 0.733 | 6.24
RCC-AB (kidney, adherent) | 0.433 | 6.70 |  |  | 0.774 | 5.68 | 0.691 | 6.29
RD (rhabdomyosarcoma, adherent) | 0.608 | 6.18 | 0.885 | < 5.10 | 0.728 | 5.92 |  | 
RERF-GC-1B (stomach, adherent) | 0.878 | < 5.29 | 0.978 | < 5.10 | 0.866 | < 5.40 |  | 
RT-112 (bladder, adherent) | 0.54 | 6.38 | 0.625 | 5.94 | 0.665 | 6.13 |  | 
SAT (head and neck, adherent) | 0.616 | 6.10 | 0.935 | < 5.10 |  |  | 0.681 | 6.27
SK-CO-1 (large intestine, adherent) | 0.617 | 6.18 | 0.97 | < 5.10 | 0.797 | 5.75 |  | 
SK-GT-2 (stomach, adherent) |  |  |  |  | 0.825 | 5.59 | 0.891 | < 5.70
SK-GT-4 (oesophagus, adherent) | 0.513 | 6.45 |  |  | 0.694 | 6.00 | 0.544 | 6.77
SK-LU-1 (lung adenocarcinoma, adherent) | 0.766 | 5.62 | 0.768 | 5.42 | 0.765 | 5.73 |  | 

Cell Line | AUC (AR-42) | pIC50 (AR-42) | AUC (Pazopanib) | pIC50 (Pazopanib) | AUC (GDC0941) | pIC50 (GDC0941) | AUC (CEP-701) | pIC50 (CEP-701)
SK-MEL-5 (melanoma, adherent) | 0.978 | < 5.29 |  |  | 0.804 | 5.59 | 0.587 | 6.64
SK-MEL-28 (melanoma, adherent) | 0.753 | 5.77 | 0.984 | < 5.10 | 0.762 | 5.85 |  | 
SK-MG-1 (glioma, adherent) | 0.664 | 6.04 |  |  | 0.614 | 6.29 | 0.692 | 6.36
SK-N-AS (neuroblastoma, adherent) | 0.315 | 7.05 | 0.967 | < 5.10 |  |  | 0.622 | 6.55
SNU-81 (large intestine, adherent) | 0.977 | < 5.29 |  |  | 0.704 | 5.94 | 0.835 | < 5.70
SNU-398 (liver, adherent) | 0.594 | 6.23 | 0.789 | 5.43 | 0.903 | < 5.40 |  | 
SNU-407 (large intestine, adherent) | 0.57 | 6.29 |  |  | 0.83 | 5.51 | 0.705 | 6.28
SNU-C5 (large intestine, adherent) | 0.657 | 6.04 |  |  | 0.804 | 5.65 | 0.527 | 6.83
SW156 (kidney, adherent) | 0.856 | 5.31 | 0.981 | < 5.10 | 0.922 | < 5.40 |  | 
SW837 (large intestine, adherent) | 0.41 | 6.78 | 0.974 | < 5.10 | 0.898 | < 5.40 |  | 
SW900 (lung squamous cell carcinoma, adherent) | 0.636 | 6.09 | 0.972 | < 5.10 | 0.873 | < 5.40 |  | 
SW1088 (glioma, adherent) | 0.853 | < 5.29 | 0.831 | 5.13 | 0.63 | 6.20 |  | 
SW1463 (large intestine, adherent) | 0.719 | 5.67 | 0.966 | < 5.10 | 0.861 | < 5.40 |  | 
T-24 (bladder, adherent) | 0.726 | 5.87 | 0.96 | < 5.10 | 0.904 | < 5.40 |  | 
TCCSUP (bladder, adherent) | 0.668 | 6.00 | 0.968 | < 5.10 | 0.734 | 5.89 |  | 
TE-4 (oesophagus, adherent) | 0.638 | 6.12 |  |  | 0.7 | 6.04 | 0.631 | 6.54
TGBC24TKB (biliary tract, adherent) | 0.556 | 6.35 | 0.964 | < 5.10 | 0.687 | 6.10 |  | 
U031 (kidney, adherent) | 0.839 | 5.43 | 0.983 | < 5.10 | 0.66 | 6.15 |  | 
VM-CUB-1 (bladder, adherent) | 0.733 | 5.84 | 0.987 | < 5.10 | 0.789 | 5.77 |  | 

From the supplement of paper PMC4967469
